Experimental data published in the supplement of paper PMC4466236.
Whole data set: some 33,000 sequences, median “E-score (dimensionless, -0.5 to 0.5)” near -0.058, cut for the highest 2% near 0.35. This is one part of the list.

Tested on: MvaT
Test: PBM 8-mer E-score (mean of HK and ME arrays) (E-score (dimensionless, -0.5 to 0.5)); higher = stronger relative binding preference; most listed sequences are background and not binding sites
Outline: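 Full-length P. aeruginosa MvaT, with glutathione S-transferase fused to its N-terminus (cloned into pTH6838 by isothermal assembly), was tested by protein binding microarray using a previously described protocol. Two universal double-stranded 60-mer arrays (ME and HK) were used, each with a constant 25-mer primer region and a variable 35-mer region covering all 8-mers. The rank-based 8-mer E-score (-0.5 to 0.5) is the mean of the two arrays, parsed with a custom Python script.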

Sequence | PBM 8-mer E-score
AAGCGTGA | -0.115
AGCAAGCC | -0.259
AGTACATG | 0.059
GTAGTCGA | 0.0836
ATTACTGG | 0.104
ACTATGTG | 0.172
ACCTGACA | -0.133
GGGTGTAC | -0.158
CCGGATCC | -0.232
CCCAGTCA | -0.0997
AAGCATGT | 0.00355
GATAAAGC | -0.0488
CAGCGGTC | -0.31
ACTTCCGG | -0.116
AAGGGAGC | -0.174
ACCTGAAA | 0.0497
GAGGGTAC | -0.202
AGGTGATC | -0.195
ACGTCCAT | -0.126
ATCCTACC | -0.158
CTCGCAGA | -0.248
AGCCGGTG | -0.261
TCCGCTCA | -0.198
ATTGAAAC | 0.0966
GGGTTACA | -0.0134

Sequence | PBM 8-mer E-score
ACGTATTA | 0.356
CACTCGTA | 0.0956
GGAATTGA | 0.056
ACTAATGA | 0.138
CAGGATTC | -0.0863
GCACCTTA | -0.0832
CGGACTAC | -0.111
CAGCAGGC | -0.262
ACTTAGAG | 0.106
AGCGCAGG | -0.263
CGATCACG | -0.187
CGGCCACG | -0.363
CGCGAAGC | -0.268
ACAGTCTC | -0.129
ACGATAGT | 0.121
CTGGGGGC | -0.361
ATCGGTTG | -0.04
ATGAGGCG | -0.17
AGCAACGG | -0.0075
TGATCACA | 0.0119
AGCAATGA | -0.143
GGAGTTCA | 0.0321
CCTACGTA | -0.205
CTGGATCA | -0.136
AAATGGCG | 0.112

Sequence | PBM 8-mer E-score
CGAATTCA | -0.0127
AGCCAGGC | -0.198
TAGAACTA | 0.226
CGGCAATA | 0.172
TATTACAA | 0.351
ACAACGAG | -0.0748
ATGCGGTA | -0.111
CCGTCTGC | -0.277
AAATGTCG | 0.138
AGCCAAAT | -0.083
AATCTCAT | 0.0925
CTAGGGGA | -0.24
CAGTCACA | -0.142
AAGGAGCA | -0.332
CACAATCC | 0.0089
CTCGACAG | -0.137
ATTTTTAG | 0.219
ACTCACGA | -0.251
CTGGTGTC | -0.174
GACACTGC | -0.276
CCATAACC | 0.00609
TCGTCGCA | -0.0186
GAGCTGCC | -0.23
CGGAAAGA | -0.0466
CCAAACTA | 0.247

Sequence | PBM 8-mer E-score
AACGAACT | 0.127
AAGCACGA | -0.184
CACGCCAC | -0.146
CAGAGGTC | -0.199
GAGGGCGA | -0.156
CTGATTCC | -0.0539
GCATTTAC | 0.181
AATAGTTG | 0.309
CCCGATCC | -0.223
CGTCACGC | -0.146
AAAACAAA | 0.216
GCTGGAAC | -0.187
GCACGTGC | 0.0443
ACACCAAA | 0.131
AGGTAACC | -0.13
CGGATTCC | -0.244
ACAGCGCG | -0.1
ATCTGTGC | -0.012
CGAGGAGA | -0.34
AAGTCAGT | 0.151
AGTAATGA | 0.165
CGCGCCTC | -0.226
GCCCGACC | -0.267
AGTAGATA | 0.202
AAGGCAAG | -0.172

Sequence | PBM 8-mer E-score
AGGAAGTC | -0.26
AGTTGCCC | 0.0202
ACATTGAT | 0.246
AGCCCACC | -0.181
GGGAAAAA | -0.0493
AATAAACA | 0.309
AGGTGGGA | -0.0733
GGCATATA | 0.217
ACCGCTGA | -0.224
AATAGCAG | 0.0422
AATCGGTG | -0.0611
ATTCTATC | 0.184
AGGACACC | -0.165
CTAGGGTA | -0.0501
ACCTCGAC | -0.123
GTTCCAAA | 0.0409
GATCATGC | -0.141
CTTCAGCA | -0.0491
GTCTTGAA | -0.0988
AAGACTAG | 0.09
AAGCCCGT | -0.0498
GCCGACAA | -0.0127
ATCTTTGA | 0.0906
GCACAGCC | -0.169
ACCCGATG | -0.191

Sequence | PBM 8-mer E-score
TAAAAACA | 0.278
TGGGTAAA | 0.114
CCAAACGC | -0.0718
GAGAAATC | -0.0566
ACGTCTCC | -0.283
GACTCCGA | -0.0775
AATGGGAG | -0.181
ACGTTGTG | -0.0716
CGGCGACA | -0.204
GACCTGAA | -0.131
CTAATCTC | 0.0339
TCAGCTAA | -0.0514
CACGAGAG | -0.223
AATGGGAT | 0.138
GATACATA | 0.32
CGCATGTC | -0.147
CGTAACCA | -0.118
CCTTCCCC | -0.27
CGGAACCG | -0.186
AAACGTTA | 0.178
CCAAGGGC | -0.3
ACACCAGA | -0.0368
AGTCCTGA | 0.0525
GCTCTATA | 0.077
CGATCTCC | -0.203

Sequence | PBM 8-mer E-score
TTTAGAAA | 0.271
CGGTTTAC | 0.0161
CTGACTGA | -0.0901
AATGGACT | -0.079
AATTATAT | 0.461
AAAGTGGG | -0.0867
CAGCTAGC | -0.212
AGAACAAA | 0.141
CGCGCGAG | -0.0934
CGATCTTA | 0.0127
ACGGTCCT | -0.21
CGAAGAGC | -0.161
TTACGGAA | 0.136
TAGTCAAA | 0.179
CATTGAGC | -0.311
CTTAAGAC | 0.0361
CCGCGTAA | 0.062
ATGCGCTA | 0.062
CACTAAGC | -0.00659
AGCTTGAT | -0.107
ATAGCAAG | 0.13
GCGTCAAC | -0.104
